# Laboratory results taken from the supplement of paper PMC12217912.
# The list shows a part of the results. Sequences were assembled here from the parent chain. Inactive controls read about 0.05.
# B1: TEV protease; numbered along this chain (parent)
# chain: MGESLFKGPRDYNPISSSICHLTNESDGHTTSLYGIGFGPFIITNKHLFRRNNGTLVVQSLHGVFKVKDTTTLQQHLVDGRDMIIIRMPKDFPPFPQKLKFREPQREERICLVTTNFQTKSMSSMVSDTSCTFPSGDGIFWKHWIQTKDGQCGSPLVSTRDGFIVGIHSASNFTNTNNYFTSVPKNFMELLTNQEAQQWVSGWRLNADSVLWGGHKVFMVKPEEPFQPVKEATQL
# Variants of: B1
# Assay: raw area under fraction-flipped curve 0-4 h after induction (AUC4h, not background-subtracted), DNA-recorder readout of cleavage of the substrate (dimensionless); higher = more cleavage of the substrate by the protease variant
# Conditions: temperature: 34 °C; time window: 0-4 h after rhamnose induction
# Description: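 In vivo DNA recorder in E. coli TOP10(DE3) ΔrhaA at 34 °C. Each TEVp single-site mutant (parent TEVp 0) is paired with a single-site variant of the 7-mer TEVs (canonical ENLYFQ|S). The substrate sits between flexible linkers in a Bxb1-sfGFP-TEVs-SsrA fusion, so cleavage stabilises Bxb1 and speeds flipping of a recombination array, read by NGS. The value is the raw area under the fraction-flipped curve over 0-4 h after rhamnose induction (AUC4h), with ≥20 reads per time point. It is not background-subtracted; inactive controls average about 0.047.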
# 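Further: Bxb1 expression induced with 0.2% (w/v) L-rhamnose at OD600 near 0.5, cultures sampled hourly, flipped fraction per protease–substrate barcode pair counted by paired-end Illumina sequencing.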
Variant,area with substrate ENLYAQS,area with substrate ENLYCQS,area with substrate ENLYDQS,area with substrate ENLYEQS,area with substrate ENLYGQS,area with substrate ENLYHQS,area with substrate ENLYIQS,area with substrate ENLYKQS,area with substrate ENLYMQS,area with substrate ENLYNQS,area with substrate ENLYPQS,area with substrate ENLYQQS,area with substrate ENLYRQS,area with substrate ENLYTQS,area with substrate ENLYVQS,area with substrate ENLYWQS,area with substrate ENLYSQS,area with substrate ENLYYQS,area with substrate ENLYLQS
D11S,0.0766,0.0869,0.0649,0.0651,0.0601,0.0927,0.129,0.0664,0.122,0.0718,0.0714,0.0638,0.0585,0.131,0.135,0.0856,–,–,–
D11L,0.0645,0.073,0.0542,0.0639,0.0629,0.0627,0.0878,0.0568,0.0704,0.0641,0.069,0.0582,0.0641,0.102,0.0828,0.0706,0.0767,0.0623,–
G2M,0.0537,–,–,0.0543,–,–,0.15,0.103,0.0994,0.0649,–,0.0714,–,–,–,0.0828,0.0561,–,–
I36A,0.0581,–,0.0507,0.0596,0.0731,0.0633,0.0907,0.0536,0.0655,0.0577,0.0814,0.0544,0.0813,0.0676,0.101,0.0584,0.0553,–,–
I36D,0.04,–,0.0272,0.0463,0.0463,0.0419,0.0376,0.0475,0.0734,0.0454,0.0354,0.0506,0.0472,–,0.043,0.0488,0.0336,0.0471,0.0355
S26F,0.0625,0.0583,0.0695,0.0573,0.0763,–,0.0866,0.0529,0.0838,0.0637,0.0637,0.0766,–,–,0.0805,–,0.0625,0.0633,0.0745
S26K,0.058,0.0944,0.0515,0.0676,0.0662,0.057,–,0.0278,0.054,0.0544,0.0563,0.0595,0.0575,0.0643,0.0763,0.06,0.0578,0.0539,–
S26C,0.0649,0.0767,0.0963,0.0739,0.0749,0.0534,0.106,0.0389,0.0748,0.0699,–,0.0468,0.0596,–,0.0993,0.0555,0.0757,–,0.0729
E25P,0.0558,0.0577,0.0633,0.0569,0.0366,0.06,0.067,0.0614,0.0596,0.0581,0.062,0.0564,0.0586,–,0.0654,0.0512,0.0601,0.0571,0.0625
G28C,0.0567,–,0.069,0.0594,0.0984,0.057,–,0.0553,0.0799,0.0593,0.0658,0.064,0.058,–,0.109,0.0741,0.063,0.0828,0.0682
I15C,0.0648,–,0.0602,0.0612,0.0724,0.061,0.118,–,0.0788,0.0636,0.0833,0.0532,0.0562,–,–,0.0807,0.0663,0.068,–
I15S,0.116,–,0.0543,0.0652,0.058,0.051,0.102,0.0611,0.057,0.0419,0.0698,0.0572,0.0537,0.0921,0.104,0.0923,0.0639,0.0599,0.0681
I19H,0.0614,0.0753,0.0603,0.0552,–,0.0586,–,0.0728,0.0697,0.0475,0.057,0.0569,0.0823,0.0673,0.108,0.0568,0.0402,0.0619,0.066
T30F,0.0755,–,0.0579,0.0709,0.0557,0.0669,0.106,0.0795,0.0838,0.0726,0.0669,0.0542,0.0416,0.0951,0.102,0.0725,–,0.0498,0.0904
S17F,0.0547,0.0612,0.0585,0.0607,0.0804,0.0664,–,0.0564,0.0672,0.0539,–,0.0724,–,0.0756,0.0936,0.0796,0.0577,–,–
S17D,0.0734,0.114,0.0625,0.0656,0.0644,0.0606,0.171,0.0666,0.0783,0.0663,0.0711,0.0651,0.0575,0.0732,0.114,0.0737,0.0924,0.063,0.122
S17Q,0.0765,–,–,0.0778,0.086,0.0715,0.146,0.0906,0.0742,0.0691,0.0694,0.0589,–,0.0536,0.116,0.0664,0.0866,0.0709,0.0736
C20R,0.0431,0.0413,–,0.0396,0.04,0.0488,0.0515,0.0383,0.0417,0.0489,0.0456,–,–,0.043,0.0492,0.0371,0.0485,0.0393,0.0349
C20M,0.0715,0.096,0.0611,0.0634,0.0699,0.072,0.118,0.0654,0.0409,–,0.0649,0.062,0.0446,–,–,–,0.0842,0.0467,0.0769
P14C,0.0974,0.071,0.0614,0.0802,0.0789,0.0713,0.102,0.0561,0.0653,0.0612,0.075,0.0569,0.07,0.0756,0.11,0.0832,–,0.0617,0.0853
P14W,0.079,–,0.0594,0.0653,0.0767,0.0596,0.155,0.0644,0.0827,0.0704,0.0722,0.06,0.0614,–,0.157,0.0815,0.0691,0.0661,–
H29A,0.0906,–,0.0374,0.0685,0.0694,0.0684,0.122,0.0501,0.0793,0.0651,0.0681,0.0615,0.0436,0.0611,0.127,0.0716,0.103,0.0704,–
